The other results are listed elsewhere or left out. Further columns of the screen follow, without active or inactive calls. Most of these compounds were active or inconclusive in the main read-out, so they are no random draw. Potencies come from curve fits of mixed quality, noted in brackets.
Test: Natriuretic polypeptide receptor (hNpr1) antagonism - Confirmation; note: nearly all actives have a fitted effect of over 70% in size
Conditions: HEK293 hNpr1 cGMP GloSensor luminescence, ANP-stimulated; measured here: HEK-hNpr1 cytotoxicity, CellTiter-Glo
Outline: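 Compound (30 min, room temperature) preceded stimulation with hNppA peptide at 0.1 nM final for 20 min. Cells were HEK293 carrying hNpr1 plus GloSensor pGS-40F cGMP biosensor, pre-equilibrated 2 h with 2% substrate; cGMP was followed as luminescence pre- and post-agonist.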
Tags give direction and shape of the fitted curve.

Row | Compound | CC50
1 | O=C(c1ccc(C(F)(F)F)cc1)N1CCn2c(nn(-c3ccncc3)c2=O)C1 | 21.7 µM [falling, partial curve]
2 | CC(C)c1ccc(CN2CC[C@@H]3OCC(=O)N(C(C)C)[C@H]3CC2)cc1 | 7.89 µM [falling, full curve]
3 | COc1cccc(CC(=O)N2CC(Oc3ccc(-c4noc(-c5ccncc5)n4)cc3)C2)c1 | 6.85 µM [falling, full curve]
4 | O=C(c1ccc(OC(F)(F)F)cc1)N1CCN(c2cc(-c3ccc(Cl)cc3)[nH]n2)CC1 | 21.7 µM [falling, partial curve]
5 | COc1cccc(NC(=O)c2cnc3c(c2)N(C(=O)Cc2ccc(C(C)C)cc2)CCC3)c1 | 19.3 µM [falling, partial curve]
6 | Cc1ncsc1CN1CCCCC1c1nc(CCOc2ccc(F)cc2)no1 (stereo unspecified) | 19.3 µM [falling, partial curve]
7 | CC(C)S(=O)(=O)N1CC(Oc2ccc(-c3noc(-c4cccnc4)n3)cc2)C1 | 19.3 µM [falling, partial curve]
8 | COc1ccc(CNC(=O)c2cc3n(n2)CC(c2ccc(Cl)cc2)OC3)cc1 (stereo unspecified) | 27.3 µM [falling, partial curve]
9 | COc1cccc(CNc2cc(Cl)nc3ccnn23)c1 | 35.3 µM [falling, partial curve]
10 | O=C(Cc1ccccc1Cl)NC1CCN(c2cc(C(F)(F)F)ncn2)CC1 | 21.7 µM [falling, partial curve]
11 | O=C(Nc1ccc(Cl)cc1)c1cc2n(n1)CC(c1ccc3c(c1)OCO3)OC2 (stereo unspecified) | 27.3 µM [falling, partial curve]
12 | CC1=NS(=O)(=O)N(C)C=C1C(=O)OCc1nc(Cc2ccc(C)cc2)no1 | 24.3 µM [falling, single point]
13 | O=C(CC1CCCC1)N1CCC(Cc2nc(-c3ccc(F)cc3)no2)CC1 | 5.44 µM [falling, full curve]
14 | CC1CCCN(C(=O)c2cc3c(s2)CCN(C(=O)c2ccc(Cl)cc2)C3)C1 (stereo unspecified) | 30.6 µM [falling, single point]
15 | COc1cc(F)cc(-c2cnc3[nH]cc(CC(=O)N4CCOCC4)c3c2)c1 | 9.94 µM [falling, full curve]
16 | COc1ccc(C2Cn3nnc(C(=O)N4CCN(C(=O)c5ccc(F)cc5)CC4)c3CO2)cc1 (stereo unspecified) | 21.7 µM [falling, partial curve]
17 | O=C(NCCc1ccccn1)c1cc2n(n1)CC(c1ccc(Br)cc1)OC2 (stereo unspecified) | 24.3 µM [falling, partial curve]
18 | COc1ccc(NC(=O)O[C@@H]2CO[C@H]3[C@@H]2OC[C@@H]3NC(=S)Nc2ccc(Cl)cc2)cc1 | 19.3 µM [falling, partial curve, poor fit]
19 | COc1ccc(CC(=O)N2CCC(Cc3nc(-c4ccccc4)no3)CC2)cc1 | 17.2 µM [falling, partial curve]
20 | COc1ccc(C(=O)Nc2ccc(-c3noc([C@@H]4CCCN4Cc4ccc(OC(F)(F)F)cc4)n3)cn2)cc1 | 6.85 µM [falling, full curve]
21 | COc1ccc(CN2C(=O)CO[C@H]3CN(Cc4ccc5c(c4)OCO5)C[C@H]32)cc1 | 35.3 µM [falling, partial curve]

Row | Compound | CC50
22 | O=[S+]1([O-])NC2(CCN(Cc3ccc(OC(F)(F)F)cc3)C2)CNc2ccccc21 (stereo unspecified) | 12.2 µM [falling, partial curve]
23 | COc1ccc(CNC(=O)c2cc3c(s2)CCN(C(=O)c2ccccc2)C3)cc1OC | 7.69 µM [falling, partial curve]
24 | Cn1cc(-c2ccc(O)c(F)c2)c2nc(COc3ccc(Cl)cc3)cn2c1=O | 35.3 µM [falling, partial curve]
25 | CS(=O)(=O)N1CCc2ccc(C(=O)Nc3ccc(Oc4ccccc4)cc3)cc21 | 7.69 µM [falling, partial curve]
26 | Fc1ccc2c(c1)nc1n2[C@@H](CNCc2cnc3ccccc3c2)COC1 | 39.6 µM [falling, partial curve]
27 | CCc1cc(N2CCOC(c3ccc4cc(OC)ccc4c3)C2)nc(C)n1 (stereo unspecified) | 21.7 µM [falling, partial curve]
28 | O=C(NCc1cccc(F)c1)c1csc(N2CCN(c3ccc(Cl)cc3)CC2)n1 | 21.7 µM [falling, partial curve]
29 | CC(C)c1ccc(CNC(=O)C2CCN(c3cc(C(F)(F)F)ncn3)CC2)cc1 | 24.3 µM [falling, partial curve]
30 | O=C(c1cc(Cl)ccc1F)N1CCC(Cc2nc(-c3ccc(F)cc3)no2)CC1 | 6.11 µM [falling, full curve]
31 | O=C(c1ccc2c(c1)OCO2)N1CCC2(CC1)N=C(c1ccc(Br)cc1)NO2 | 27.3 µM [falling, partial curve]
32 | CCOc1ccc(C(O)Cn2ccn3nc(-c4ccccc4C)cc3c2=O)cc1 (stereo unspecified) | 17.2 µM [falling, partial curve]
33 | COc1ccc(-c2ccnc(N[C@H]3CO[C@H]4[C@@H]3OC[C@H]4OC(=O)Nc3ccc(C(C)=O)cc3)n2)cc1 | 19.3 µM [falling, partial curve]
34 | COc1ccc(CN2CCN3C(=O)N(Cc4ccc(OC)cc4)C[C@H]3C2)cc1 | 22.2 µM [falling, partial curve]
35 | O=C(OCc1ccccc1)N1CCCN(c2cc(C3CC(O)C3)ncn2)CC1 (stereo unspecified) | 13.7 µM [falling, partial curve]
36 | Cc1noc(C)c1-c1cnc2[nH]cc(CC(=O)N3CCOCC3)c2c1 | 25 µM [falling, partial curve, poor fit]
37 | O=C(Nc1ccc(Cl)cc1)c1cc2n(n1)CC(c1ccc(Cl)cc1)OC2 (stereo unspecified) | 30.6 µM [falling, single point]
38 | O=C(Nc1ccncc1)C1=NO[C@@H]2CN(CCc3ccccc3)C[C@H]12 | 31.4 µM [falling, partial curve]
39 | CCc1ccc(C(=O)N2CCC(Cc3nc(-c4ccc(OC)cc4)no3)CC2)cc1 | 8.62 µM [falling, full curve]
40 | Cc1ccc(C(=O)N2CCC3(CC2)CC(=O)Nc2ccccc2O3)cc1 | 24.1 µM [falling, partial curve]
41 | O=C(CCC1CCCN(S(=O)(=O)c2cccc(F)c2)C1)NC1CCCCC1 (stereo unspecified) | 21.7 µM [falling, partial curve]
42 | N#Cc1cccc(NC(=O)O[C@@H]2CO[C@H]3[C@@H]2OC[C@@H]3Nc2nccc(-c3cccc(F)c3)n2)c1 | 21.7 µM [falling, partial curve]

Row | Compound | CC50
43 | OCC1CCCN(c2ccc(-c3nc(-c4cccc(C(F)(F)F)c4)no3)cn2)C1 (stereo unspecified) | 17.2 µM [falling, partial curve]
44 | O=C(c1cccc(F)c1)N1CC(Oc2ccc(-c3noc(C4CCOCC4)n3)cc2)C1 | 15.3 µM [falling, partial curve]
45 | CCOC(=O)c1ccc(NC(=O)Cn2c(N(C)Cc3ccccc3)nc(C)cc2=O)cc1 | 27.3 µM [falling, single point]
46 | CC1Oc2ccc(NC(=O)Cc3cccs3)cc2CN(Cc2ccc(Cl)cc2)C1=O (stereo unspecified) | 43.2 µM [falling, single point]
47 | COc1ccc(C2Cn3nnc(C(=O)N4CCN(C(=O)c5cccc(Cl)c5)CC4)c3CO2)cc1 (stereo unspecified) | 19.3 µM [falling, partial curve]
48 | Cc1csc(NC(=O)c2cnc3c(c2)N(C(=O)Cc2ccc(C(C)C)cc2)CCC3)n1 | 31.4 µM [falling, partial curve]
49 | CC1(COc2cccnc2)COc2ccc(C(=O)NCc3ccc(F)cc3)cc2N1 (stereo unspecified) | 35.3 µM [falling, partial curve]
50 | Cc1ccc(OCc2nc(C3CCN(C(=O)CCc4nc5ccc(Cl)cc5[nH]4)CC3)no2)cc1 | 24.3 µM [falling, partial curve]
51 | CC(C)c1cc(C(=O)N2CCC(n3cc(-c4ccccn4)nn3)CC2)n(C)n1 | 21.7 µM [falling, partial curve]
52 | O=C(NCc1cc(F)ccc1F)c1csc(N2CCN(c3ccccc3F)CC2)n1 | 30.6 µM [falling, single point]
53 | Cc1ccc(CNC(=O)N2CCC(c3noc(-c4ccccc4)n3)C2)cc1 (stereo unspecified) | 43.2 µM [falling, single point]
54 | COc1ccc(S(=O)(=O)N2CCc3c(C(=O)NCCc4ccccn4)cccc32)cc1 | 34.3 µM [falling, single point]
55 | COc1ccccc1C(=O)N1CCC(Cc2nc(-c3ccc(F)cc3)no2)CC1 | 12.2 µM [falling, partial curve]
56 | Cc1nc(C2CC(O)C2)cc(N2CCN(c3nc4ccccc4s3)CC2)n1 (stereo unspecified) | 9.68 µM [falling, partial curve]
57 | Cc1ccccc1C(=O)N1CCC2(CC1)N=C(c1ccc(Br)cc1)NO2 | 30.6 µM [falling, single point]
58 | CC(C)c1nc(-c2ccc(OC3CCN(C(=O)c4cc(F)ccc4F)C3)cc2)no1 (stereo unspecified) | 19.3 µM [falling, partial curve]
59 | COc1cccc(-c2noc(CC3CCN(C(=O)c4cc(Cl)ccc4F)CC3)n2)c1 | 21.7 µM [falling, partial curve]
60 | O=C(CCc1ccccc1)N1CCC(Cc2nc(-c3ccc(F)cc3)no2)CC1 | 17.2 µM [falling, partial curve]
61 | Nc1nc(NCc2ccc(Cl)cc2Cl)cc(C2CC(O)C2)n1 (stereo unspecified) | 17.2 µM [falling, partial curve]
